These are yes or no findings as the source states them, for the method shown. Some binding calls cover weakened binding; strength is not graded here. Tags and fused reporters may be left off the sequences shown.

Chains of the proteins cited; added tags and fusions are not shown. Lines headed by an entry give the natural chain unless they say otherwise; changes in a name come on top.
UniProt O75140: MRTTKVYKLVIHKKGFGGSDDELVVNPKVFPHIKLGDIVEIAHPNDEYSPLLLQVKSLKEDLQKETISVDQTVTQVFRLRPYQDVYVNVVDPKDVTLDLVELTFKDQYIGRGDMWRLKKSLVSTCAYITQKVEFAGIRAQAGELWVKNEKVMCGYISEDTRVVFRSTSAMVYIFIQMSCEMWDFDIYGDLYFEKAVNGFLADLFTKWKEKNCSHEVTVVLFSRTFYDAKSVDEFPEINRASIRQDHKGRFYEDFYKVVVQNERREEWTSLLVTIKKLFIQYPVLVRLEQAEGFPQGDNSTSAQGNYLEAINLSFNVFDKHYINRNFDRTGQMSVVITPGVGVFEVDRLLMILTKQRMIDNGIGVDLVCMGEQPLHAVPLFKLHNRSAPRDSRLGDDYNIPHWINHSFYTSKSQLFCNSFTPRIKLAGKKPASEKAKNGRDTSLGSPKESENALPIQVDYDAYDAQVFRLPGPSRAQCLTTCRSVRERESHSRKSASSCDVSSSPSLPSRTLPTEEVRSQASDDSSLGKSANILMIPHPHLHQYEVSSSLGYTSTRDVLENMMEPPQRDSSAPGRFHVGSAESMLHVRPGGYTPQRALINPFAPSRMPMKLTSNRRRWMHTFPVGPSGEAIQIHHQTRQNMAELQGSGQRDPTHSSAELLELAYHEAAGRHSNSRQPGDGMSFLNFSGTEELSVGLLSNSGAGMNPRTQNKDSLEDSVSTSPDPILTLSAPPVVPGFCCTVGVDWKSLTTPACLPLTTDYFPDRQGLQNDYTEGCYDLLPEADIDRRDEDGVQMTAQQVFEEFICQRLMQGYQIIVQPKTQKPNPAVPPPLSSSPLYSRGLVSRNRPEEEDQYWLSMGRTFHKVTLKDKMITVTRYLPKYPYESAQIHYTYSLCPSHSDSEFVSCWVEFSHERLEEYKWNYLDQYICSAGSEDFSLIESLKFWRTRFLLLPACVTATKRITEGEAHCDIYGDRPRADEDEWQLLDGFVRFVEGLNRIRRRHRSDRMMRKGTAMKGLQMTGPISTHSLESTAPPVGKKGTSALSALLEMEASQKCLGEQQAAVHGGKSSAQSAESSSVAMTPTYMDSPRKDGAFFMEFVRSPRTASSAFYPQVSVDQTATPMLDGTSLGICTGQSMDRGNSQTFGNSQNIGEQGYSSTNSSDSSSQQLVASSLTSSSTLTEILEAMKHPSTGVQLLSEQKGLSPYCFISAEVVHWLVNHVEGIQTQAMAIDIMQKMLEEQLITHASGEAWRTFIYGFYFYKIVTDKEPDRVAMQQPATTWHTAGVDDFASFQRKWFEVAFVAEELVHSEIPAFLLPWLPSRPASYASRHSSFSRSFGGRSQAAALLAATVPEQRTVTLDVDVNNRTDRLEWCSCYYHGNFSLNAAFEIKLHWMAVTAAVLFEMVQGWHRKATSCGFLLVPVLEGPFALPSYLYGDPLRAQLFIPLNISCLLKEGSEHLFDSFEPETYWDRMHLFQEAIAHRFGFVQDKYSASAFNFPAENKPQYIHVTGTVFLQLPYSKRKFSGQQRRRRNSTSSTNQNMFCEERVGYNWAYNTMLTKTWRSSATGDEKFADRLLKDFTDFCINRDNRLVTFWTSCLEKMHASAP

These results are taken from paper PMC9481464.

In one assay the target is FLAG–DEPDC5 Y775A (UniProt O75140). Nature of the assay: co-purification; FLAG–DEPDC5 (wild type or Y775A), HA-Nprl2 and HA-Nprl3 co-transfected 1:2:2 in HEK293T; anti-FLAG beads, FLAG peptide elution in CHAPS buffer; Coomassie staining.
The target of another assay is FLAG–DEPDC5 (wild type) (UniProt O75140). The assay is described as above.

B1: HA-tagged Nprl2/3 (complex, UniProt Q8WTW4 1-380; Q12980 1-569)
chain 1: MGSGCRIECIFFSEFHPTLGPKITYQVPEDFISRELFDTVQVYIITKPELQNKLITVTAMEKKLIGCPVCIEHKKYSRNALLFNLGFVCDAQAKTCALEPIVKKLAGYLTTLELESSFVSMEESKQKLVPIMTILLEELNASGRCTLPIDESNTIHLKVIEQRPDPPVAQEYDVPVFTKDKEDFFNSQWDLTTQQILPYIDGFRHIQKISAEADVELNLVRIAIQNLLYYGVVTLVSILQYSNVYCPTPKVQDLVDDKSLQEACLSYVTKQGHKRASLRDVFQLYCSLSPGTTVRDLIGRHPQQLQHVDERKLIQFGLMKNLIRRLQKYPVRVTREEQSHPARLYTGCHSYDEICCKTGMSYHELDERLENDPNIIICWK
chain 2: MRDNTSPISVILVSSGSRGNKLLFRYPFQRSQEHPASQTSKPRSRYAASNTGDHADEQDGDSRFSDVILATILATKSEMCGQKFELKIDNVRFVGHPTLLQHALGQISKTDPSPKREAPTMILFNVVFALRANADPSVINCLHNLSRRIATVLQHEERRCQYLTREAKLILALQDEVSAMADGNEGPQSPFHHILPKCKLARDLKEAYDSLCTSGVVRLHINSWLEVSFCLPHKIHYAASSLIPPEAIERSLKAIRPYHALLLLSDEKSLLGELPIDCSPALVRVIKTTSAVKNLQQLAQDADLALLQVFQLAAHLVYWGKAIIIYPLCENNVYMLSPNASVCLYSPLAEQFSHQFPSHDLPSVLAKFSLPVSLSEFRNPLAPAVQETQLIQMVVWMLQRRLLIQLHTYVCLMASPSEEEPRPREDDVPFTARVGGRSLSTPNALSFGSPTSSDDMTLTSPSMDNSSAELLPSGDSPLNQRMTENLLASLSEHERAAILSVPAAQNPEDLRMFARLLHYFRGRHHLEEIMYNENTRRSQLLMLFDKFRSVLVVTTHEDPVIAVFQALLP
With B1, the binding result with FLAG–DEPDC5 Y775A and in the assay with FLAG–DEPDC5 (wild type) was “binds” throughout.
